Measurements reported in patent US9012606B2, “In vivo half life increased fusion protein or peptide maintained by sustained in vivo release, and method for increasng in vivo half-life using same” (Alteogen, Inc., priority 2009, dated 2015).

Columns and labels:
[1] = Pharmacokinetics of hGH and hGH/alpha-1 antitrypsin fusions (serum ELISA); type: in vivo; conditions: Sprague-Dawley rats, subcutaneous, 720 μg/kg
Description: An anti-human growth hormone monoclonal antibody (Medix Biochemica, Finland) was diluted to a concentration of 1-5 μg/mL in phosphate buffered saline (PBS) and the dilution was aliquoted in an amount of 100 μL/well onto a 96-well plate (Nunc, Denmark) and incubated at room temperature for 15-18 hrs. After the antibody remaining suspended was removed, PBS containing 1% bovine serum albumin was plated in an amount of 250 μL/well and incubated at room temperature for 2 hours. The plates were washed three times with wash buffer (0.05% Tween 20, PBS) and the solution was aspirated. Samples were diluted in PBS containing 1% bovine serum albumin and added to the 96-well plates before incubation at room temperature for 2 hrs. […] To each well was added 100 μL of 1 M sulfuric acid to terminate the reaction, followed by measuring absorbance at 450 nm on a VersaMax microplate reader (Molecular Device, U.S.A.). Values for each sample were calculated by regression analysis after a standard curve was plotted for a reference material.
Sprague-Dawley rats were used as experimental animals and three of them were administered with human growth hormone while five rats were assigned to each of the fusion-administered groups. […] Each sample was analyzed in the same manner as the enzyme immunoassay of Test Example 1.

[2] = tested on: rat lymphoma cell line (NB2 cell); assay: In vitro activity in NB2 cells (MTS method); type: cell-based; conditions: 48 hrs
Description: The rat lymphoma cell line (NB2 cell) was maintained in RPMI1640 supplemented with 10% HS (Horse serum), 10% FBS, 2-mercaptoethanol and antibiotics at 37° C. under a 5% CO2 condition. For 24 hrs before experiment, NB2 cells were incubated in RPMI 1640 supplemented with 10% HS. Thereafter, the NB2 cells were washed once with 1×DPBS (Dulbecco's Phosphate Buffered Saline), and plated at a density of 2×10^4 cells/100 μL/well in 5% HS-supplemented RPMI 1640 in 96-well plates (Corning, U.S.A.) with final volume of 100 μL. A series of concentrations of the samples were added in an amount of 20 μL to each well of the 96-well plates, followed by incubation at 37° C. for 48 hrs under a 5% CO2 condition. Subsequently, 20 μL of an MTS solution (Promega, U.S.A.) was added to each well of the 96-well plates and allowed to react at 37° C. for 3 hrs under a 5% CO2 condition. The reaction was terminated by adding 20 μL of 10% SDS (sodium dodecyl sulfate) to each well. Absorbance was measured at 490 nm using a VersaMax microplate reader (Molecular Device, U.S.A.).

EC50 [2]: 217 pM
B1: human growth hormone/alpha-1 antitrypsin divariant fusion (protein)
chain: EDPQGDAAQKTDTSHHDQDHPTFNKITPNLAEFAFSLYRQLAHQSNSTNIFFSPVSIATAFAMLSLGTKADTHDEILEGLNFNLTEIPEAQIHEGFQELLRTLNQPDSQLQLTTGNGLFLSEGLKLVDKFLEDVKKLYHSEAFTVNFGDTEEAKKQINDYVEKGTQGKIVDLVKELDRDTVFALVNYIFFKGKWERPFEVKDTEEEDFHVDQVTTVKVPMMKRLGMFNIQHCKKLSSWVLLMKYLGNATAIFFLPDEGKLQHLENELTHDIITKFLENEDRRSASLHLPKLSITGTYDLKSVLGQLGITKVFSNGADLSGVTEEAPLKLSKAVHKAVLTIDEKGTEAAGAMFLEAINMTIPPEVKFNKPFVFLMIDQNTKSPLFMGKVVNPTQKGGGGS[sequence of about 200 residues omitted]
modifications: T109T [alpha-1AT(P357N, S359T)/hGH]
notes: hGH fused to C-terminus of alpha-1 antitrypsin divariant P357N, S359T
serum half-life (t1/2) [1]: 4.9 h
time to peak serum concentration (Tmax) [1]: 12.8 h
